Results from PubChem BioAssay AID1508623 (National Center for Advancing Translational Sciences (NCATS), 2021).
About 450 (0.94%) of roughly 48,000 compounds were called active. Inconclusive results (about 19%) are left out. Calls follow the shape of the dose curve; as a rule, active = well fitted inhibition curve with a large enough effect; inconclusive = small, poorly fitted or top-dose-only effect; inactive = no such curve, though single readings can be large or run the other way. The list shows a part of the results.

Assay: Primary qHTS for Identification of Small Molecule Inhibitors of Huntingtin Promoter Activity; also: nearly all actives have a fitted effect of over 50% in size
Settings: HEK293 HTT promoter firefly luciferase reporter (activity 0% = vehicle and -100% = no light), 24 h; series mostly up to 57.5 µM; activity change, negative = inhibition: at the top concentration
Outline: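 Luminescence was read after Dual-Glo reagent and a 10 min room-temperature incubation. Values were normalized to vehicle (0% activity) and zero RLU (-100% activity). Reporter HEK293 cells had been exposed to compounds (up to 57.5 uM final) for 24 h.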

Activity change, negative = inhibition, inactive:
CC(=O)Nc1cccc(NC(=O)C2(c3cccs3)CCOCC2)c1 -5.69%, CCOC(=O)CC(=O)CSc1nc2ccccc2c(=O)n1CCc1ccccc1 -42.3%, Cn1c(=O)c(=O)n(C)c2cc(N3CCCC3)c(NC(=O)c3ccc(C(C)(C)C)cc3)cc21 -12.3%, Cc1cccc(NC(=O)CSc2cn(CC(=O)N3CCOCC3)c3ccccc23)c1 -5.17%, CCn1cc(C(=O)NCCOC)c(=O)c2cc(S(=O)(=O)N3CCOCC3)ccc21 -14.1%, CCSc1nnc2c(n1)OC(c1ccc(OCC(=O)O)cc1)Nc1ccccc1-2 (stereo unspecified) 16.4%, O=C(CCC1N=C2c3ccccc3N=C(SCC(=O)Nc3ccccc3F)N2C1=O)NCc1cccs1 (stereo unspecified) -1.84%, CCOC(=O)C1=C(c2ccccc2)Nc2ncnn2C1c1ccc(Cl)cc1 (stereo unspecified) -16.2%, COc1ccc(CNC(=O)c2ccc3c(c2)NC(=O)C(CS(=O)(=O)Cc2ccccc2Cl)N3)cc1 (stereo unspecified) -24.1%, CCOc1ccccc1CNC(=O)CN1C(=O)CCn2nc(-c3cn(C)c4ccccc34)cc21 0%, O=C(c1ccc2c(c1)N(Cc1cccc(Cl)c1)C(=O)c1ccccc1S2(=O)=O)N1CCC(Cc2ccccc2)CC1 -41.9%, CSc1cccc(N2C(=O)N(CC(=O)NCc3ccccc3Cl)c3ccccc3S2(=O)=O)c1 -30%, CC(C)CCOc1ccc(Oc2nc(N(C)C)nc(N(C)C)n2)nn1 -3.09%, COc1ccccc1-n1ncc2c(=O)[nH]c(SCC(=O)Nc3cccc(F)c3)nc21 -25.2%, COc1ccc2c(CNCc3cccs3)c(C(=O)O)n(Cc3ccc(F)cc3Cl)c2c1 -23.4%, CCOc1ccccc1N(C)C(=O)Cn1cnc2onc(-c3ccc(F)cc3)c2c1=O -0.14%, CCOc1ccc(C(=O)c2oc3ccccc3c2NC(=O)c2cc(-c3ccccc3)on2)cc1 -0.252%, Cc1ccc(NC(=O)C(Cc2ccccc2)n2cccc2)c(C)c1 (stereo unspecified) -25.1%, CCCCCn1c(=N)c(S(=O)(=O)c2ccccc2)cc2c(=O)n3cccc(C)c3nc21 1.1%, COc1ccc(NC(=O)CN(C)S(=O)(=O)c2ccc3c(c2)CCCN3C(C)=O)cc1Cl -19.5%, CC(C)Oc1cccc(C(=O)Nc2ccc(-c3nc4cc(Cl)cc(Cl)c4o3)cc2)c1 -5.77%, Cc1nnc(SCc2ccccc2Cl)c2cc3occc3n12 55.2%, COc1cc(-c2noc(-c3ccc(NC4CCCCC4)c([N+](=O)[O-])c3)n2)cc(OC)c1OC -8.21%, COc1ccccc1C(=O)Nc1ccccc1SCc1cc(=O)c2ccccc2[nH]1 14%, CCN(CC)C(=O)Cn1c(=O)n(CCCCCC(=O)NCc2ccccc2)c(=O)c2sccc21 -9.87%, O=C(c1ccc2c(c1)N(Cc1ccccc1F)C(=O)c1ccccc1S2=O)N1CCCCC1 (stereo unspecified) -15.5%
